# Some of the results follow.
# B1: Neuropilin-1 (Rattus norvegicus), Q9QWJ9 (protein)
# chain: MERGLPLLCATLALALALAGAFRSDKCGGTIKIENPGYLTSPGYPHSYHPSEKCEWLIQAPEPYQRIMINFNPHFDLEDRDCKYDYVEVIDGENEGGRLWGKFCGKIAPSPVVSSGPFLFIKFVSDYETHGAGFSIRYEIFKRGPECSQNYTAPTGVIKSPGFPEKYPNSLECTYIIFAPKMSEIILEFESFDLEQDSNPPGGVFCRYDRLEIWDGFPEVGPHIGRYCGQKTPGRIRSSSGILSMVFYTDSAIAKEGFSANYSVLQSSISEDFKCMEALGMESGEIHSDQITASSQYGTNWSVERSRLNYPENGWTPGEDSYREWIQVDLGLLRFVTAVGTQGAISKETKKKYYVKTYRVDISSNGEDWITLKEGNKAIIFQGNTNPTDVVFGVFPKPLITRFVRIKPASWETGISMRFEVYGCKITDYPCSGMLGMVSGLISDSQITASNQGDRNWMPENIRLVTSRTGWALPPSPHPYINEWLQVDLGDEKIVRGVIIQGGKHRENKVFMRKFKIAYSNNGSDWKMIMDDSKRKAKSFEGNNNYDTPELRAFTPLSTRFIRIYPERATHSGLGLRMELLGCEVEVPTAGPTTPNGNPVDECDDDQANCHSGTGDDFQLTGGTTVLATEKPTIIDSTIQSEFPTYGFNCEFGWGSHKTFCHWEHDSHAQLRWRVLTSKTGPIQDHTGDGNFIYSQADENQKGKVARLVSPVVYSQSSAHCMTFWYHMSGSHVGTLRVKLHYQKPEEYDQLVWMVVGHQGDHWKEGRVLLHKSLKLYQVIFEGEIGKGNLGGIAVDDISINNHIPQEDCAKPTDLDKKNTEIKIDETGSTPGYEEGKGDKNISRKPGNVLKTLDPILITIIAMSALGVLLGAVCGVVLYCACWHNGMSERNLSALENYNFELVDGVKLKKDKLNPQSNYSEA
# What was measured:
# Experiment in all cases: glycan array binding signal (z-score within array); higher = stronger binding
# Conditions in all cases: glycan notation: IUPAC condensed, linker removed
# Gal(a1-3)Gal = biological target: Gal(a1-3)Gal
# In short: (§1)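 Arrays were curated from the Consortium for Functional Glycomics database, 3228 in total, and kept only where the protein sequence was available. Binding is expressed as a within-array Z-score. This score was averaged across arrays of the same protein sequence at different concentrations or buffers and across linkers, and negative values can be read as non-binding.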
# Gal(a1-3)Gal(b1-3)GlcNAc = biological target: Gal(a1-3)Gal(b1-3)GlcNAc
# In short: as §1
# Gal(a1-3)Gal(b1-4)Glc = biological target: Gal(a1-3)Gal(b1-4)Glc
# In short: as §1
# Gal(a1-3)Gal(b1-4)GlcNAc = biological target: Gal(a1-3)Gal(b1-4)GlcNAc
# In short: as §1
# [1] = biological target: Gal(a1-3)Gal(b1-4)[Fuc(a1-3)]GlcNAc
# In short: as §1
# [2] = biological target: Gal(a1-3)Gal(b1-4)[Fuc(a1-3)]GlcNAc(b1-2)Man(a1-3)[Gal(a1-3)Gal(b1-4)[Fuc(a1-3)]GlcNAc(b1-2)Man(a1-6)]Man(b1-4)GlcNAc(b1-4)GlcNAc
# In short: as §1
# Gal(a1-3)GalNAc = biological target: Gal(a1-3)GalNAc
# In short: as §1
# [3] = biological target: Gal(a1-3)[Gal(a1-4)]Gal(b1-4)GlcNAc
# In short: as §1
# Gal(a1-4)Gal(b1-4)Glc = biological target: Gal(a1-4)Gal(b1-4)Glc
# In short: as §1
# Gal(a1-4)Gal(b1-4)GlcNAc = biological target: Gal(a1-4)Gal(b1-4)GlcNAc
# In short: as §1
# [4] = biological target: Gal(a1-4)Gal(b1-4)GlcNAc(b1-3)Gal(b1-4)Glc
# In short: as §1
# Gal(a1-4)GlcNAc = biological target: Gal(a1-4)GlcNAc
# In short: as §1
# Gal(a1-6)Glc = biological target: Gal(a1-6)Glc
# In short: as §1
# Gal(b1-2)Gal = biological target: Gal(b1-2)Gal
# In short: as §1
# Gal(b1-3)Gal = biological target: Gal(b1-3)Gal
# In short: as §1
# Gal(b1-3)Gal(b1-4)GlcNAc = biological target: Gal(b1-3)Gal(b1-4)GlcNAc
# In short: as §1
# [5] = biological target: Gal(b1-3)Gal(b1-4)GlcNAc(b1-2)Man(a1-3)[Gal(b1-3)Gal(b1-4)GlcNAc(b1-2)Man(a1-6)]Man(b1-4)GlcNAc(b1-4)GlcNAc
# In short: as §1
# Gal(b1-3)GalNAc = biological target: Gal(b1-3)GalNAc
# In short: as §1
# [6] = biological target: Gal(b1-3)GalNAc(a1-3)[Fuc(a1-2)]Gal(b1-4)Glc
# In short: as §1
# [7] = biological target: Gal(b1-3)GalNAc(a1-3)[Fuc(a1-2)]Gal(b1-4)GlcNAc
# In short: as §1
# [8] = biological target: Gal(b1-3)GalNAc(b1-3)Gal(a1-4)Gal(b1-4)Glc
# In short: as §1
# [9] = biological target: Gal(b1-3)GalNAc(b1-4)Gal(b1-4)Glc
# In short: as §1
# [10] = biological target: Gal(b1-3)GalNAc(b1-4)[Neu5Ac(a2-3)]Gal(b1-4)Glc
# In short: as §1
# Gal(b1-3)GlcNAc = biological target: Gal(b1-3)GlcNAc
# In short: as §1
# [11] = biological target: Gal(b1-3)GlcNAc(b1-2)Man(a1-3)[Gal(b1-3)GlcNAc(b1-2)Man(a1-6)]Man(b1-4)GlcNAc(b1-4)GlcNAc
# In short: as §1
# [12] = biological target: Gal(b1-3)GlcNAc(b1-2)Man(a1-3)[Gal(b1-3)GlcNAc(b1-2)Man(a1-6)]Man(b1-4)GlcNAc(b1-4)[Fuc(a1-6)]GlcNAc
# In short: as §1
# [13] = biological target: Gal(b1-3)GlcNAc(b1-3)Gal(b1-3)GlcNAc
# In short: as §1
# [14] = biological target: Gal(b1-3)GlcNAc(b1-3)Gal(b1-4)Glc
# In short: as §1
# [15] = biological target: Gal(b1-3)GlcNAc(b1-3)Gal(b1-4)GlcNAc
# In short: as §1
# [16] = biological target: Gal(b1-3)[Fuc(a1-4)]GlcNAc
# In short: as §1
binder,measurement,setting,value
B1,glycan array binding signal (z-score),Gal(a1-3)Gal,-0.1
same,glycan array binding signal (z-score),Gal(a1-3)Gal(b1-3)GlcNAc,-0.232
same,glycan array binding signal (z-score),Gal(a1-3)Gal(b1-4)Glc,-0.313
same,glycan array binding signal (z-score),Gal(a1-3)Gal(b1-4)GlcNAc,-0.169
same,glycan array binding signal (z-score),[1],-0.231
same,glycan array binding signal (z-score),[2],4.58
same,glycan array binding signal (z-score),Gal(a1-3)GalNAc,-0.354
same,glycan array binding signal (z-score),[3],-0.114
same,glycan array binding signal (z-score),Gal(a1-4)Gal(b1-4)Glc,-0.279
same,glycan array binding signal (z-score),Gal(a1-4)Gal(b1-4)GlcNAc,-0.229
same,glycan array binding signal (z-score),[4],-0.247
same,glycan array binding signal (z-score),Gal(a1-4)GlcNAc,-0.316
same,glycan array binding signal (z-score),Gal(a1-6)Glc,-0.36
same,glycan array binding signal (z-score),Gal(b1-2)Gal,-0.273
same,glycan array binding signal (z-score),Gal(b1-3)Gal,0.132
same,glycan array binding signal (z-score),Gal(b1-3)Gal(b1-4)GlcNAc,-0.301
same,glycan array binding signal (z-score),[5],2.39
same,glycan array binding signal (z-score),Gal(b1-3)GalNAc,-0.208
same,glycan array binding signal (z-score),[6],-0.323
same,glycan array binding signal (z-score),[7],-0.26
same,glycan array binding signal (z-score),[8],-0.203
same,glycan array binding signal (z-score),[9],-0.305
same,glycan array binding signal (z-score),[10],-0.257
same,glycan array binding signal (z-score),Gal(b1-3)GlcNAc,0.051
same,glycan array binding signal (z-score),[11],-0.258
same,glycan array binding signal (z-score),[12],-0.174
same,glycan array binding signal (z-score),[13],-0.264
same,glycan array binding signal (z-score),[14],-0.265
same,glycan array binding signal (z-score),[15],-0.189
same,glycan array binding signal (z-score),[16],-0.008
